Laboratory results taken from FireProtDB (doi:10.1021/bi00135a022).

Settings: Escherichia coli (strain K12), pH 7, DSC, reversible: yes
[1] = 25 °C, Thermal, phosphate 0.01 M, NaCl 0.1 M
[2] = 25 °C, Urea, MOPS 0.05 M, NaCl 0.5 M
[3] = Thermal, phosphate 0.01 M, NaCl 0.1 M

With “Thioredoxin 1 wild type (sequence left out)” the denaturant m value (25 °C, GdnHCl, MOPS 0.05 M) was 3.51 kcal/mol/M, the “denaturant midpoint (higher = more stable)” value (25 °C, GdnHCl, MOPS 0.05 M) was 2.22 M and the unfolding free energy (25 °C, GdnHCl, MOPS 0.05 M) was 7.8 kcal/mol. For the same substance, the “heat capacity change of unfolding” value [1] was 1.66 kcal/mol/K, the unfolding free energy [1] was 8.9 kcal/mol and the denaturant m value [2] was 1.32 kcal/mol/M. The “denaturant midpoint (higher = more stable)” value [2] was 6.57 M, the unfolding free energy [2] was 8.6 kcal/mol and the Tm [3] was 87 °C. For the same substance, the “unfolding enthalpy (calorimetric)” value [3] was 107 kcal/mol.
